From PubChem BioAssay AID540267 (National Center for Advancing Translational Sciences (NCATS), 2011)
Screen size: about 340,000 compounds; about 530 (0.16%) were called active. Inconclusive means that the source gave no clear call. Such entries were picked first, then a sample of the others. Rule as the data show it: active = activity change below about -80%; inconclusive = between about -30% and that limit; inactive = weaker than that.
% is scaled to controls: 0 for no effect and ±100 for the full control effect.

Assay: Small Molecules that selectively kill Giardia lamblia: qHTS;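 also: parasites exposed to compound for two days anaerobically before the ATP read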
Conditions: Giardia lamblia trophozoite viability; at 7.66 µM; active compounds read low
Outline: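 ATP-content bioluminescence gauges trophozoite survival. Cells (100/well) receive compound and incubate anaerobically for 48 hrs at 37 deg C; detection reagent follows for 15-30 min at room temperature.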
For `CCCC/C=C/[C@H](c1ccccc1)[C@H](CO)Cc1cccnc1`, the activity change was inconclusive: -42.5% [inhibitor]. In the case of `COc1cccc(/C=N/NC(=O)C(=O)NCc2ccco2)c1OC`, the activity change is reported as inactive: -10.4%. With `Cc1nc2c(-c3ccc(F)cc3)c(C)nn2c(C)c1CCC(=O)NC(C)CCc1ccco1` (centres undefined) the activity change was inconclusive: -31.5% [inhibitor]. For `CCOC(=O)c1c(NC(=O)CSc2nnc(C)o2)sc(C)c1C`, the activity change was inconclusive: -34.5% [inhibitor]. In the case of `O=C(Nc1ccc(S(=O)(=O)N2CCCC2)cc1)c1ccccc1`, the activity change is reported as inactive: 0.227%. With `CSc1ccccc1OCc1cc(C(=O)N2CCN(Cc3nccn3C)CC2)no1` the activity change was inconclusive: -33.6% [inhibitor]. With `CC12CC3CC(C)(C1)CC(CN1CCOCC1)(C3)C2` the activity change was inactive: 0.163%. In the case of `CCOC(=O)Cn1nnnc1CN(Cc1ccc(OC)cc1)Cc1cc2cc(C)cc(C)c2[nH]c1=O`, the activity change is reported as inactive: -2.61%. In the case of `O=C(Nc1ccccc1N1CCCCC1)c1cccc(OC(F)F)c1`, the activity change is reported as inconclusive: -31.8% [inhibitor]. In the case of `COc1cc(C(=O)/C=C/c2cccnc2)ccc1O`, the activity change is reported as inactive: -14%. In the case of `Cc1ccc(/C=N/n2cnc3sc(-c4ccccc4)cc3c2=O)o1`, the activity change is reported as inconclusive: -35.9% [inhibitor]. In the case of `CCOC(=O)c1ccc(NC(=O)CSc2ccc(-c3ccccn3)nn2)cc1`, the activity change is reported as inactive: 1.37%. In the case of `Cc1ccc(CNC(=O)/C=C/c2ccc(S(=O)(=O)N3CCOCC3)cc2)cc1`, the activity change is reported as inactive: 15.4%. With `O=C(N/N=C/c1c[nH]c2ccccc12)C1COc2ccccc2O1` (centres undefined) the activity change was inconclusive: -42.4% [inhibitor]. For `Cn1cc(/C=C/c2cc[n+](C)cc2)c2cc(Cl)ccc21`, the activity change was inactive: 7.12%. In the case of `Cc1ccc(/C=C(\NC(=O)c2ccc(C)cc2)c2nc(=S)[nH][nH]2)cc1`, the activity change is reported as inactive: 3%. With `O=C(CSc1nc(=O)n(CCN2CCOCC2)c2c1CCCC2)Nc1ccc([N+](=O)[O-])cc1` the activity change was inactive: -29.6%. In the case of `Cc1ccc(NC(=S)c2nc3ccccc3[nH]2)cc1`, the activity change is reported as inconclusive: -32.8% [inhibitor]. In the case of `CC(CN1CCOCC1)OC(=O)c1ccccc1` (centres undefined), the activity change is reported as inactive: -6.35%. In the case of `O=C(COC(=O)c1ccc[nH]c1=O)Nc1ccc(N2CCCCC2)cc1`, the activity change is reported as inconclusive: -38.7% [inhibitor]. With `CN1c2ccc([N+](=O)[O-])cc2C(C)(C)C12C=Cc1cc(C(=O)O)ccc1O2` (centres undefined) the activity change was inconclusive: -44.3% [inhibitor]. With `O=C(COc1ccc2ccccc2c1Br)Nc1ncn[nH]1` the activity change was inconclusive: -43.1% [inhibitor]. With `Cn1c(-c2ccc(C(F)(F)F)cc2)cc2onc(-c3ccccc3)c2c1=O` the activity change was inconclusive: -36% [inhibitor]. With `CCc1ccc(S(=O)(=O)Nc2ccc(O)c3c(=O)cc(-c4ccccc4Cl)oc23)cc1` the activity change was inactive: -17%. In the case of `COc1ccccc1NC(=O)Nc1ccc2c(c1)nc(C)n2C`, the activity change is reported as inconclusive: -51.4% [inhibitor]. In the case of `O=C(NCCN1CCCCC1)c1cccc2c1C(=O)c1ccc(N3CCCC3)cc1S2(=O)=O`, the activity change is reported as inconclusive: -30.5% [inhibitor]. With `COc1cc(OC)c(NC(=O)Cc2cccs2)cc1Cl` the activity change was inconclusive: -30.9% [inhibitor]. For `Cc1ccc(NC(=O)c2ncn(CC(=O)N[C@H](CO)Cc3c[nH]c4ccccc34)n2)cc1C`, the activity change was inconclusive: -39.4% [inhibitor]. For `O=C(Oc1cccc2cccnc12)c1ccc2c(c1)OCCO2`, the activity change was inconclusive: -35.3% [inhibitor]. For `COc1cc(OC)cc(C(=O)Nc2ccc3c(c2)n(C)c(=O)n3C)c1`, the activity change was inconclusive: -43.9% [inhibitor]. For `Cc1cc(C)c2sc(N(CCCN(C)C)C(=O)c3ccc(S(=O)(=O)N(C)Cc4ccccc4)cc3)nc2c1`, the activity change was inactive: -27.7%. In the case of `COc1ccccc1CCNC(=O)C1CCN(c2nnc(C)c3c(C)n(-c4ccc(C)cc4)nc23)CC1`, the activity change is reported as inconclusive: -38% [inhibitor]. With `COc1ccc(-c2csc(NC(=O)CSc3nc(SC)ns3)n2)cc1` the activity change was inconclusive: -31.7% [inhibitor]. With `O=C(Nc1ccc(S(=O)(=O)Nc2nccs2)cc1)c1nn(-c2ccccc2)ccc1=O` the activity change was inconclusive: -30.9% [inhibitor]. In the case of `COc1ccc2[nH]c3c(c2c1)CCNC3=O`, the activity change is reported as inconclusive: -30.1% [inhibitor]. In the case of `COCCN1C(=O)C(=O)/C(=C(/O)c2cccc(OC)c2)C1c1ccncc1` (centres undefined), the activity change is reported as inconclusive: -33.7% [inhibitor]. With `O=S(=O)(Nc1cccc2cccnc12)c1cccc2ccccc12` the activity change was inactive: 0.044%. With `O=C(c1ccccc1)c1cc2ccccc2oc1=O` the activity change was inconclusive: -44.5% [inhibitor]. With `O=C1NCCN1c1ncc([N+](=O)[O-])s1` the activity change was active: -88.1%. With `C/C(=N\Nc1nc(C)cc(-c2ccccc2)n1)c1ccc(O)cc1` the activity change was inactive: -9.35%. With `COC(=O)c1ccc(NC(=S)Nc2ccc3ccccc3c2)cc1` the activity change was inactive: 13.6%. For `O=C(Cc1cccc2ccccc12)N/N=C1\CCCc2ccccc21`, the activity change was inactive: 5.06%. With `CC(C)c1ccc(NC(=O)N2CCC(c3nc4ccccc4o3)CC2)cc1` the activity change was inactive: -4.84%. In the case of `C/C(=N\Nc1nncc2ccccc12)c1ccc(O)cc1`, the activity change is reported as inconclusive: -46.1% [inhibitor]. In the case of `CCNC(=S)NNC(=O)c1cc(-c2ccc(OC)cc2)nc2ccccc12`, the activity change is reported as inconclusive: -54.4% [inhibitor]. In the case of `O=C(c1ccc([N+](=O)[O-])o1)N1CCN(Cc2ccccc2)CC1`, the activity change is reported as inconclusive: -72.6% [inhibitor]. With `COc1ccc(CC(=O)NCCS(=O)(=O)N2CCN(c3ccc(F)cc3)CC2)cc1OC` the activity change was inactive: 6.36%. With `Cc1cccc2c(N)c3c(nc12)N(C)CC3` the activity change was inconclusive: -43.8% [inhibitor]. In the case of `CNc1ncnc2c1ncn2[C@@H]1O[C@H](CO)[C@@H](O)[C@H]1O`, the activity change is reported as inactive: -21.6%. With `O=C(NCCc1ccccc1)c1ccc2[nH]c(=O)c(=O)[nH]c2c1` the activity change was inconclusive: -36.8% [inhibitor]. With `Cc1ccc(/C=N/NC(=O)c2cc(C)oc2C)cc1` the activity change was inactive: 1.62%. In the case of `Cc1ccc(S(=O)(=O)N2[C@@H](c3cccc(Cl)c3)C(C(=O)O)=CC[C@H]2c2cccs2)cc1`, the activity change is reported as inconclusive: -35.2% [inhibitor]. In the case of `Cc1nc2ccc([N+](=O)[O-])cc2c(=O)n1Cc1ccccc1Br`, the activity change is reported as inactive: -7.65%. In the case of `CCOc1cc(C2NN=C(c3ccccc3)S2)ccc1OCc1ccccc1Cl` (centres undefined), the activity change is reported as inactive: -16.7%. In the case of `Cc1ccccc1CSCc1nc(N)nc(Nc2ccccc2C)n1`, the activity change is reported as inactive: -7.41%. For `Fc1ccc(CNC(=S)NCc2ccccc2)cc1`, the activity change was inconclusive: -30.3% [inhibitor]. In the case of `c1cn2c(NC3CCCC3)c(-c3ccc(N4CCOCC4)cc3)nc2cn1`, the activity change is reported as inconclusive: -31% [inhibitor]. For `CCN(CC)Cc1c(NC(=O)c2ccccc2)sc(C)c1C`, the activity change was inconclusive: -35.4% [inhibitor]. For `Cc1nc(N)sc1C(=O)N/N=C/c1c[nH]c2ccccc12`, the activity change was inactive: 8.86%. With `O=C(Nc1ncccc1O)c1ccc(S(=O)(=O)N2CCCCCC2)cc1` the activity change was inconclusive: -31.3% [inhibitor]. For `COc1ccccc1N1CCN(C(=O)c2cc(=O)c3cc(C)ccc3o2)CC1`, the activity change was inconclusive: -31.7% [inhibitor]. With `C=C(C)C(=O)Nc1cccc(C2=NOC3(C2)C[C@@H](C(N)=O)N(C(=O)/C=C/C=C/C)C3)c1` (some centres undefined) the activity change was inactive: 8.84%. With `Cc1ccc(S(=O)(=O)N2[C@@H](c3ccc(Cl)cc3)C(C(=O)O)=CC[C@H]2c2ccc(Cl)cc2)cc1` the activity change was inconclusive: -39.3% [inhibitor]. For `Cc1ccc(NC(=O)c2nc[nH]c2C(=O)Nc2ccc(C)cc2)cc1`, the activity change was inactive: -1.43%. For `COc1ccc(C(=O)C2CCCN(C(=O)c3ccc4nccnc4c3)C2)c(C)c1` (centres undefined), the activity change was inconclusive: -32.1% [inhibitor]. For `COc1ccc(-c2cn3ccc(C)cc3n2)cc1`, the activity change was inconclusive: -59.7% [inhibitor]. With `COc1ccccc1CN1CCN(Cc2nc(Cc3ccccc3)no2)CC1` the activity change was inconclusive: -30.8% [inhibitor]. For `Cn1c(CSCc2ccccc2)nnc1SCC(=O)Nc1ccc(C(=O)O)cc1`, the activity change was inconclusive: -32% [inhibitor]. For `Cc1cccc(-n2c(C)cc(C=C3C(=O)c4ccccc4C3=O)c2C)c1`, the activity change was inactive: -13%. With `CCOC(=O)C1=C(C)N(CCCCCC(=O)O)C(=O)NC1c1ccccc1Cl` (centres undefined) the activity change was inconclusive: -33.2% [inhibitor]. With `O=C(CSc1nnc(-c2ccc(Cl)cc2)n1CC1CCCO1)NC1CCS(=O)(=O)C1` (centres undefined) the activity change was inconclusive: -33.6% [inhibitor]. In the case of `CC(=O)Oc1ccc(/C=C2/C(=O)N(c3ccccc3)N=C2C)cc1`, the activity change is reported as inconclusive: -34.1% [inhibitor]. In the case of `CCOc1ccc(C2NC(=O)NC(c3ccccc3)=C2C(C)=O)cc1OC` (centres undefined), the activity change is reported as inconclusive: -40.6% [inhibitor]. With `Cc1ccc(S(=O)(=O)N(CC(=O)c2ccccc2)C(=O)N2CCN(C)CC2)cc1` the activity change was inconclusive: -40% [inhibitor]. In the case of `Cc1cccc(NC(=O)COC(=O)c2ccccn2)c1`, the activity change is reported as inconclusive: -38.3% [inhibitor]. With `O=C1NC(O)(c2ccccc2)Oc2ccccc21` (centres undefined) the activity change was inconclusive: -32.5% [inhibitor]. In the case of `NC(=O)c1ccsc1NC(=O)c1ccc(N2CCCC2=O)cc1`, the activity change is reported as inconclusive: -66.3% [inhibitor]. With `CN(Cc1ccccc1)C(=O)c1cccc(NC(=O)Cc2cccc(NC(=O)C3CCN(C(=O)c4ccccc4)CC3)c2)c1` the activity change was inactive: -11.2%. With `O=C(Nc1nccs1)c1cccc2ccccc12` the activity change was inactive: -27%.
